Measured values: article PMC6274018, “Design, Synthesis and Biological Evaluation of Novel Benzothiazole Derivatives as Selective PI3Kβ Inhibitors” (Molecules, 2016)

How the values were obtained:
[1] = tested on: PC-3 cells; assay: Anti-proliferative MTS assay, PC-3; format: cell-based; conditions: Homo sapiens, prostate tumor cells, 72 h exposure
Procedure: (§1) All new synthesized compounds in this paper were screened for their anti-proliferative activity by MTS assay. A549, MCF7, SKOV3, AGS, MES-SA, HepG2, SW-620, PC-3, DU145 and MRC5 cells in this paper were all purchased from American Type Culture Collection (ATCC, Manassas, VA, USA), and were seeded into 96-well plates and cultured for 24 h. Subsequently, these cells were exposed to serial concentrations of compound for 72 h. Cells were then washed with PBS and fixed with CellTiter 96® (Promega) aqueous one solution reagent at 37°C for 3 h. Finally, record the absorbance at 490 nm using a 96-well plate reader. […] All of the compounds were tested two times in each of the cell lines and the results expressed as inhibition rates or IC50 (inhibitory concentration 50%) were the averages of two determinations.

[2] = biological target: T1, PI3Kβ (Homo sapiens, UniProt P42338); assay: ADP-Glo Lipid Kinase Assay, PI3Kβ; format: biochemical; conditions: for inhibition at 1 µM: compound concentration 1 μM, read-out: % Inhib. of PI3Kβ kinase at 1 μM
T1 construct: purchased Promega Corporation #V1691
T1 sequence (P42338 whole entry): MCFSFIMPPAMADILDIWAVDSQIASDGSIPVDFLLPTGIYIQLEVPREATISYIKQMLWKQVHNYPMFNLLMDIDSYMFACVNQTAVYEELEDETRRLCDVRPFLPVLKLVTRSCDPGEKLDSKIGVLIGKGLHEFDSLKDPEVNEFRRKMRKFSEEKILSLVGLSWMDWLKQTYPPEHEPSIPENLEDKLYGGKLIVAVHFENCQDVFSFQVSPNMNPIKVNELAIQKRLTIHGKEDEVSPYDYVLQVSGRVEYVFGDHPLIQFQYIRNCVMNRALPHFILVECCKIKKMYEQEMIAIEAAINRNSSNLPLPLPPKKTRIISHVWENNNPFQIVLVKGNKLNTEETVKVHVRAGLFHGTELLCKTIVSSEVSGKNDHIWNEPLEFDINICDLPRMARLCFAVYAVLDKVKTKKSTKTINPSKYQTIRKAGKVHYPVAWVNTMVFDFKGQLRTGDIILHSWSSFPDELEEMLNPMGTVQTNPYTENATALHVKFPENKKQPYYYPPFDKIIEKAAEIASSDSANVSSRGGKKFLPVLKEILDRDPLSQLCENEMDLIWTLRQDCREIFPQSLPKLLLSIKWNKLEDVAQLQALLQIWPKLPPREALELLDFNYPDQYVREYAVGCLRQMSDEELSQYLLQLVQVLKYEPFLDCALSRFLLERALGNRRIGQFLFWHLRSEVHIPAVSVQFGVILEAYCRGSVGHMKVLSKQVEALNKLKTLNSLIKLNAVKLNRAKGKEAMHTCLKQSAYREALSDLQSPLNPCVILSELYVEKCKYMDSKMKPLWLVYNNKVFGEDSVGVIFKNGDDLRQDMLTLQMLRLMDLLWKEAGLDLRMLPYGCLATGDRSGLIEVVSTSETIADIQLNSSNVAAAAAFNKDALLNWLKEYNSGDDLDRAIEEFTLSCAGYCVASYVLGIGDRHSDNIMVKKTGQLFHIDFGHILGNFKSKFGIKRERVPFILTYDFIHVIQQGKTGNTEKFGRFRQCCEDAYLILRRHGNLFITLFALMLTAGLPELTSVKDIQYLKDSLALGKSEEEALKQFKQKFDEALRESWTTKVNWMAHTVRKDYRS
T1 sequence (P27986 whole entry partner): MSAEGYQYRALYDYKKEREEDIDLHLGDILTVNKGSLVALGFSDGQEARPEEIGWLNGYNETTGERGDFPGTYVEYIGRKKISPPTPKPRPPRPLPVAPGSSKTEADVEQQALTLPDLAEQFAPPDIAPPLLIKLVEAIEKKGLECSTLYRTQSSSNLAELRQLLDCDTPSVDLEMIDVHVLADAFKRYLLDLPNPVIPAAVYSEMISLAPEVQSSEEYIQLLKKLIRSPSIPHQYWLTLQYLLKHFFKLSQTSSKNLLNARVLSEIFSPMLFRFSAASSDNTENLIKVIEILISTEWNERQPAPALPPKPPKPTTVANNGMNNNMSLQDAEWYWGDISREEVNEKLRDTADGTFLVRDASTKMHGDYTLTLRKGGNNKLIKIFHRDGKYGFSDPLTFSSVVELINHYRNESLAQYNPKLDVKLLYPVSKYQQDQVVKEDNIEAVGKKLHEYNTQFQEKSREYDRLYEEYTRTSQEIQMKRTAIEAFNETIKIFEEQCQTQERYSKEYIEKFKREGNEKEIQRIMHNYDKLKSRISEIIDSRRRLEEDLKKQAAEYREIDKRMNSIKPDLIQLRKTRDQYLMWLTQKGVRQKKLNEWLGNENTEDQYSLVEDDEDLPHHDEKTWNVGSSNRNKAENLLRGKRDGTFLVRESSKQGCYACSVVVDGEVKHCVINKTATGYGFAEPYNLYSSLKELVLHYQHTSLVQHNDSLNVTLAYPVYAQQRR

[3] = tested on: MCF7 cells; assay: Anti-proliferative MTS assay, MCF7; format: cell-based; conditions: Homo sapiens, 72 h exposure
Procedure: as §1

[4] = tested on: HepG2 cells; assay: Anti-proliferative MTS assay, HepG2; format: cell-based; conditions: Homo sapiens, 72 h exposure
Procedure: as §1

[5] = tested on: SW-620 cells; assay: Anti-proliferative MTS assay, SW-620; format: cell-based; conditions: Homo sapiens, 72 h exposure
Procedure: as §1

[6] = tested on: A549 cells; assay: Anti-proliferative MTS assay, A549; format: cell-based; conditions: Homo sapiens, 72 h exposure
Procedure: as §1

[7] = tested on: DU145 cells; assay: Anti-proliferative MTS assay, DU145; format: cell-based; conditions: Homo sapiens, DU-145, prostate tumor cells, 72 h exposure
Procedure: as §1

[8] = tested on: MES-SA cells; assay: Anti-proliferative MTS assay, MES-SA; format: cell-based; conditions: Homo sapiens, 72 h exposure
Procedure: as §1

[9] = tested on: SKOV3 cells; assay: Anti-proliferative MTS assay, SKOV3; format: cell-based; conditions: Homo sapiens, SK-OV-3, 72 h exposure
Procedure: as §1

[10] = tested on: AGS cells; assay: Anti-proliferative MTS assay, AGS; format: cell-based; conditions: Homo sapiens, 72 h exposure
Procedure: as §1

[11] = tested on: MRC5 cells; assay: Anti-proliferative MTS assay, MRC5; format: cell-based; conditions: human normal cell, 72 h exposure
Procedure: as §1

[12] = biological target: T2, PI3Kδ (Homo sapiens, UniProt O00329); assay: ADP-Glo kinase assay, PI3Kδ; format: biochemical; conditions: average of two determinations
T2 construct: purchased Promega Corporation #V1691
T2 sequence (O00329 whole entry): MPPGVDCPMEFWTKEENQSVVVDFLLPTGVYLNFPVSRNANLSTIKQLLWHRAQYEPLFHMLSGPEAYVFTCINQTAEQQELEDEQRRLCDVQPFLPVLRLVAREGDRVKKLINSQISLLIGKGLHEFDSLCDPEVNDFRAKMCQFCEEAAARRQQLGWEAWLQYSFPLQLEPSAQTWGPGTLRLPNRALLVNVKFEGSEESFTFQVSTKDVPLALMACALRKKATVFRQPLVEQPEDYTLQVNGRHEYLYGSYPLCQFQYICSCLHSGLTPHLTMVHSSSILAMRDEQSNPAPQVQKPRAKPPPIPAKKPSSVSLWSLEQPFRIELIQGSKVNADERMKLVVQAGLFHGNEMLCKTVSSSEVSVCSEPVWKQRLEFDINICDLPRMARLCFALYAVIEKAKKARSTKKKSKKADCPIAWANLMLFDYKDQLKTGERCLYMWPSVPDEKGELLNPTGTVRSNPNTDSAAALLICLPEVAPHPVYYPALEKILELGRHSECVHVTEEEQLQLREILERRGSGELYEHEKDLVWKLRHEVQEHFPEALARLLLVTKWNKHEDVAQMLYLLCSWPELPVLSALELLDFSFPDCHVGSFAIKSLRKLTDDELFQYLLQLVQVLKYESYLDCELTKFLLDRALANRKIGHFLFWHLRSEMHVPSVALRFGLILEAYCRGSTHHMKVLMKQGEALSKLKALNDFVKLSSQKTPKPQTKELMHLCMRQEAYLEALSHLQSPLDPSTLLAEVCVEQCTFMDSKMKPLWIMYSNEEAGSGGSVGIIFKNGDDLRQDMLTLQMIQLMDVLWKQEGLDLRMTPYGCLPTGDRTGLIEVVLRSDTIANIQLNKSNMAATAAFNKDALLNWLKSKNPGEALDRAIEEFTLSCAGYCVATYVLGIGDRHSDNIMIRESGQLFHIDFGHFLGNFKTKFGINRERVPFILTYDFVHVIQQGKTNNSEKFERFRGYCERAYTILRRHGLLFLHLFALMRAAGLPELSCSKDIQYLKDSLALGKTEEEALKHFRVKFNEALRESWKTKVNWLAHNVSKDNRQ
T2 sequence (P27986 whole entry partner): as the sequence (P27986 whole entry partner) above

[13] = biological target: T3, PI3Kγ (Homo sapiens, UniProt P48736); assay: ADP-Glo kinase assay, PI3Kγ; format: biochemical; conditions: average of two determinations
T3 construct: purchased Promega Corporation #V1691
T3 sequence (P48736 whole entry): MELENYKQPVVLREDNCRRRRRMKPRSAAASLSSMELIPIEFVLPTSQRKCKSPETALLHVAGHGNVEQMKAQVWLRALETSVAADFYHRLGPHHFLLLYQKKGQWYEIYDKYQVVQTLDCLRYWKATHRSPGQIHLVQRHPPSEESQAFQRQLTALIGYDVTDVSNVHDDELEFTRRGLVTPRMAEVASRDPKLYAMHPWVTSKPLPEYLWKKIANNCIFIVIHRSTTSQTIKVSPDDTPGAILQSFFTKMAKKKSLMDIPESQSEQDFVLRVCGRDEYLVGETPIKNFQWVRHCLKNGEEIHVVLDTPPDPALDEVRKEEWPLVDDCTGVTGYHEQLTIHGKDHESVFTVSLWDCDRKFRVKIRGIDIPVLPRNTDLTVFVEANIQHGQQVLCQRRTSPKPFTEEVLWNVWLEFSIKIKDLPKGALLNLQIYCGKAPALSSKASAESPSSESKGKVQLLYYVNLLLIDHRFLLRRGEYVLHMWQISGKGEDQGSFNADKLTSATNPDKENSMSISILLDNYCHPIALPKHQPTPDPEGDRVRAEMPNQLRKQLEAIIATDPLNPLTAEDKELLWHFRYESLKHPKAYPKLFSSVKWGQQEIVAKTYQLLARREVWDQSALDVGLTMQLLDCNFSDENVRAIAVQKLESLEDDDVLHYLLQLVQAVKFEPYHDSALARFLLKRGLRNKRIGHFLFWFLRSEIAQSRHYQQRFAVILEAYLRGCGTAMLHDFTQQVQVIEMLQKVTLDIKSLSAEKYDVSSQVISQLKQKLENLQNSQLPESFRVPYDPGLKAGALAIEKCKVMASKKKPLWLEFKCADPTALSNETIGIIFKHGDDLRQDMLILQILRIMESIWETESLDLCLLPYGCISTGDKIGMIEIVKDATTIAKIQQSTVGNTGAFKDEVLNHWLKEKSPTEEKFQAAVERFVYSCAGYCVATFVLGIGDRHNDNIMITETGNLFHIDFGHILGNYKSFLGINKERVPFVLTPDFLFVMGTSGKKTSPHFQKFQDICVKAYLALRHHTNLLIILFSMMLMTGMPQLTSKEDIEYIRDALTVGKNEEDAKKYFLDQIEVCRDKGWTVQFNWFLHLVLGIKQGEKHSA

[14] = biological target: T4, mTOR (Homo sapiens, UniProt P42345); assay: mTOR enzyme assay (LANCE ultra TR-FRET); format: biochemical; conditions: average of two determinations
T4 construct: purchased Invitrogen

[15] = biological target: PI3Kα (Homo sapiens, UniProt P42336); assay: ADP-Glo kinase assay, PI3Kα
Sequence of UniProt P42336 (P42336 whole entry): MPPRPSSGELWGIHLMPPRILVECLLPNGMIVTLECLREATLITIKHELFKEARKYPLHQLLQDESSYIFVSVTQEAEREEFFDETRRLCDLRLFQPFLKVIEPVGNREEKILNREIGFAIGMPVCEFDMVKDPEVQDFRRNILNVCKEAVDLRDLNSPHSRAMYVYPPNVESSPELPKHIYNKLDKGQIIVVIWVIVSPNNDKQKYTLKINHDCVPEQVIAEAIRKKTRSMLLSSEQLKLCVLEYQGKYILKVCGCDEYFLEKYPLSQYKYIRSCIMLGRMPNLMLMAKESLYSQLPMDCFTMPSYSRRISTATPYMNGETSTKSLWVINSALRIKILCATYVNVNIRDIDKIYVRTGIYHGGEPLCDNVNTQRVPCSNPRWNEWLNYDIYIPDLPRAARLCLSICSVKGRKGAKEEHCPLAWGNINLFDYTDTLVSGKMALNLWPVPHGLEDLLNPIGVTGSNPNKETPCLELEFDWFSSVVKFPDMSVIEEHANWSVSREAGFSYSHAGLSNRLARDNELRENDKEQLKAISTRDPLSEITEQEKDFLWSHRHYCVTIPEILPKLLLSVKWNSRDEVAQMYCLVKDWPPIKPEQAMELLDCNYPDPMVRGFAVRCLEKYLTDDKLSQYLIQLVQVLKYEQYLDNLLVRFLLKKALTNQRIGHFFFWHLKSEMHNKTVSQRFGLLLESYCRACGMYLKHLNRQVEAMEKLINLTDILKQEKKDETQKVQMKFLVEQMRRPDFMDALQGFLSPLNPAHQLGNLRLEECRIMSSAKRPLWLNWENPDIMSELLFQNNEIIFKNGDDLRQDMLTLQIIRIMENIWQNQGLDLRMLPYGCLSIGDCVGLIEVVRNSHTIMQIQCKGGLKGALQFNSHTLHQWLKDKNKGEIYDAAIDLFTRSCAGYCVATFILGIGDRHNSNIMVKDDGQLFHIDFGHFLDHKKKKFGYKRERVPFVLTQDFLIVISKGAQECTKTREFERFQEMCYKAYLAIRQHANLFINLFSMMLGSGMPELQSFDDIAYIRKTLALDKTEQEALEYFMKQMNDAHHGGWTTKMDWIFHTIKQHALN
Sequence of UniProt P42336 (P27986 whole entry partner): as the sequence (P27986 whole entry partner) above

Row | IC50 [1] | inhibition at 1 µM [2] | melting point | IC50 [3] | IC50 [4] | IC50 [5] | IC50 [6] | IC50 [7] | IC50 [9] | IC50 [10] | IC50 ([2]; average of two determinations) | IC50 [12] | IC50 [13] | Structure (SMILES) | IC50 [8] | IC50 [11] | IC50 [14] | IC50 [15]
1 | 15.3 µM | 52.1% | 256 to 260 °C | 4.06 µM | > 100 µM | 8.31 µM | > 100 µM | 9.5 µM | 21.2 µM | 9.69 µM |  |  |  | CCNC(=O)Nc1ccc(-c2cc(N3CCOCC3)c3nc(N4CCOCC4)sc3c2)cc1 [Compound 1, 1-(4-(2,4-Dimorpholinobenzo[d]thiazol-6-yl)phenyl)-3-ethylurea] | 12.3 µM | 6.06 µM |  | 
2 | 5.74 µM | 75.9% |  | 0.75 µM | 2.7 µM | 5.39 µM | 85 µM | 2.95 µM | 0.63 µM | 1.78 µM | 0.12 µM | 15.3 µM | > 50 µM | O=C(Nc1ccc(CO)cc1)Nc1ccc(-c2cc(N3CCOCC3)c3nc(N4CCOCC4)sc3c2)cc1 [Compound 10, 1-(4-(2,4-Dimorpholinobenzo[d]thiazol-6-yl)phenyl)-3-(4-(hydroxymethyl)phenyl)urea] | 0.72 µM | 1.19 µM | > 50 µM | > 50 µM
3 | > 100 µM | 10.2% |  | 40.8 µM | > 100 µM | 30.8 µM | 14.4 µM | > 100 µM | 26.9 µM | 64.9 µM |  |  |  | O=C(Nc1ccc(-c2cc(N3CCOCC3)c3nc(N4CCOCC4)sc3c2)cc1)NC1CC1 [Compound 5, 1-Cyclopropyl-3-(4-(2,4-dimorpholinobenzo[d]thiazol-6-yl)phenyl)urea] | 33.1 µM | 38.5 µM |  | 
4 | 25.2 µM | 11.7% | 200 to 202 °C | 6.53 µM | 6.2 µM | 10.9 µM | 2.27 µM | 71.7 µM | 3.76 µM | 15.3 µM |  |  |  | CCNC(=O)Nc1ccc(-c2cc(N3CCOCC3)c3nc(N4CCN(C(C)C)CC4)sc3c2)cc1 [Compound 3, 1-Ethyl-3-(4-(2-(4-isopropylpiperazin-1-yl)-4-morpholinobenzo[d]thiazol-6-yl)phenyl)urea] | 3.92 µM | 3.53 µM |  | 
5 | 5.92 µM |  |  | 0.89 µM | 1.1 µM |  | 6.91 µM | 1.41 µM | 0.3 µM | 3.62 µM |  |  |  | CS(=O)(=O)N1CCN(Cc2cc3nc(-c4cccc5[nH]ncc45)nc(N4CCOCC4)c3s2)CC1 [GDC-0941, 2-(1H-indazol-4-yl)-6-(4-methanesulfonyl-piperazin-1-ylmethyl)-4-morpholin-4-yl-thieno[3,2-d]pyrimidine, reference compound] | 0.23 µM | 20.7 µM |  | 
6 | > 100 µM | 15% |  | 19.9 µM | > 100 µM | 41.2 µM | 5.67 µM | > 100 µM | 8.85 µM | 47 µM |  |  |  | O=C(NCc1ccccc1)Nc1ccc(-c2cc(N3CCOCC3)c3nc(N4CCOCC4)sc3c2)cc1 [Compound 6, 1-Benzyl-3-(4-(2,4-dimorpholinobenzo[d]thiazol-6-yl)phenyl)urea] | 24.9 µM | 16.5 µM |  | 
7 | 14.2 µM | 37.7% | 244 to 247 °C | 14.2 µM | 15.8 µM | > 100 µM | 3.72 µM | 23 µM | 18.9 µM | 36.6 µM |  |  |  | O=C(Nc1ccc(-c2cc(N3CCOCC3)c3nc(N4CCOCC4)sc3c2)cc1)Nc1ccc(F)cc1F [Compound 7, 1-(2,4-Difluorophenyl)-3-(4-(2,4-dimorpholinobenzo[d]thiazol-6-yl)phenyl)urea] | 6.49 µM | 28.3 µM |  | 
8 | 33.5 µM | 17.6% | 228 to 231 °C | 6.58 µM | > 100 µM | > 100 µM | 14.8 µM | > 100 µM | 5.59 µM | 12.2 µM |  |  |  | CCNC(=O)Nc1ccc(-c2cc(N3CCOCC3)c3nc(N4CCCCC4)sc3c2)cc1 [Compound 4, 1-Ethyl-3-(4-(4-morpholino-2-(piperidin-1-yl)benzo[d]thiazol-6-yl)phenyl)urea] | 21.9 µM | 83.5 µM |  | 
9 | 42.4 µM | 22.5% | 214 to 216 °C | > 100 µM | > 100 µM | 82.7 µM | 32.7 µM | 38.6 µM | 35.2 µM | 37.9 µM |  |  |  | CN1CCN(c2ccc(NC(=O)Nc3ccc(-c4cc(N5CCOCC5)c5nc(N6CCOCC6)sc5c4)cc3)cc2)CC1 [Compound 9, 1-(4-(2,4-Dimorpholinobenzo[d]thiazol-6-yl)phenyl)-3-(4-(4-methylpiperazin-1-yl)phenyl)urea] | 75.3 µM | > 100 µM |  | 
10 | 25.2 µM | 27.2% | 274 to 278 °C | 11.6 µM | 9.83 µM | > 100 µM | 7.53 µM | 17.5 µM | 20.4 µM | > 100 µM |  |  |  | CNC(=O)Nc1ccc(-c2cc(N3CCOCC3)c3nc(N4CCOCC4)sc3c2)cc1 [Compound 8, 1-(4-(2,4-Dimorpholinobenzo[d]thiazol-6-yl)phenyl)-3-methylurea] | > 100 µM | 35.7 µM |  | 

Row | Structure (SMILES) | IC50 [1] | inhibition at 1 µM [2] | melting point | IC50 [3] | IC50 [4] | IC50 [5] | IC50 [6] | IC50 [7] | IC50 [9] | IC50 [10] | IC50 ([2]; average of two determinations) | IC50 [12] | IC50 [13] | IC50 [8] | IC50 [11] | IC50 [14] | IC50 [15]
11 | O=C(Nc1ccc(-c2cc(N3CCOCC3)c3nc(N4CCOCC4)sc3c2)cc1)Nc1cccnc1 [Compound 11, 1-(4-(2,4-Dimorpholinobenzo[d]thiazol-6-yl)phenyl)-3-(pyridin-3-yl)urea] | 0.35 µM |  |  | 0.36 µM | 3.43 µM | 1.17 µM | 3.48 µM | 0.62 µM | 2.64 µM | 0.4 µM |  |  |  | 0.55 µM | 33.1 µM | 39.8 µM | 5.43 µM
